Results from the supplement of paper PMC12632987.
The full ranking holds about 4,500 sequences; the median of “median log2 fold change of GCK-ALFA target abundance (FLAG IP / Myc IP barcode read proportion)” is about 0.078, and the lowest 2% start at about -0.6. The list shows a part of the results.

B1: GBRAP_48_5839 (protein)
chain: SEARREAAVEAILAVIRETAELLEEAKAEGLSEAAFEAILIDAAEEIAEILERYLGLGEAWRALPLEEQLARVRELVEILRTEGEEAAREAIRRWIDELE
B2: GBRAP_125_3017 (protein)
chain: AEEELAAALGLIARRLGLSEAEIEELRRLAREHGVKGAMIALALAEGWEELADLLEQLSEEEVAAVVRRVAAALRADPSLTPEELRALLLAEARAALAAS
B3: GBRAP_184_5328 (protein)
chain: KTVEVHIPNKSLEEIVKEFEKAAAEAAAKGADLVVHVDASGYSSEELVELLERMGKIAKEKGIKNVTVGLDVEVDEETADKLIEVADKYGIKLTLALSDE
B4: GBRAP_184_5051 (protein)
chain: KILERTIKAENLEELKKKLEELKKELENFKGKLIVHVEMPKFTEEMVRLIIETLKEILEEGYVDSVTVGLDGEMSEEVVDLAVKLAKEAGINVVLALEEE
B5: GBRAP_160_4752 (protein)
chain: SEELEKLRKEVEEIFEEGEELLKEVPASEAPTVVKGTMGEVLMLVFSSEAASDELEEEVGKIVDETEKEAAANANAPVEEHIALLRKAKKEILEAIDKEI
B6: GBRAP_9_7160 (protein)
chain: LQALIDEIQAVINDAFDEVAEIVPAEHRPVVDAARAEAEATFAALKADPTTTKEQAVETAKQLLRDALARIAAVVDPETARMAEAIILTAELEIEEIAEK
B7: GBRAP_52_5853 (protein)
chain: MEERARELARRLVELALAGDREGLRRELEELVRTLSEEEILEILRELAELAKTATPEEVDAIVEVAIELADIAEEAGFDEWELSAALADVGKAAYENLQK
B8: GBRAP_80_6777 (protein)
chain: AVEEAEKAIKELEKLDPELAERAKKILEKLKEQGASDEVFKAFAEAVKAIAKLVELGLEEEAKELLKEMEEAAEEEDQENRLAMFRGIAGEALLAVEEAE
B9: GBRAP_95_7035 (protein)
chain: EDDKLALESDLEVAVAAAELGDEEAAARALRRALELLEKAGKVKLDPELLKETIEVVLRVGVKRLPKEEVLRLLELLLEDAETEEVKELAKKAIEEVKER
B10: GBRAP_78_6587 (protein)
chain: KIDEAIDEFLKAVGETMRLLSKDPSELAQDLLGELIDESSAILEAYEEENDKEKILKEAKAALEALKKALEKREQFSPELVKAIEEAAKAAEKLIKLLEE
B11: GBRAP_48_5841 (protein)
chain: EEEKLEKAIEEILKVIEETAELLEELEEEGLSEAAFEAVLIDAAEEIEEILEKYLGLGEEFKKLPLEERLKIVRELVEIYREEGREAARKRIREFIESLK
B12: GBRAP_160_4224 (protein)
chain: METVEKLVKIFRENFEEALELIEGESLEEQKVILDVAAGEVILEAEEIEEATEEMVEIVDKKAEEAREELLEAREASKEEKRKLIEEHAEKLRKELEKVA
B13: GBRAP_52_6181 (protein)
chain: MRAAIRAALEEIFALVKEGRLDEARAKAEALVASLDDAELRLLVEEYGAFAAEQPLENEDDVFRTAEIIAEAIEAAGKDEALAEDLLAAAAAALYKKRLA
B14: GBRAP_52_6141 (protein)
chain: MSEELKAQAQQIIELVKAGKLDEAQALADKLVKENNDEELKEFADEFAEVIESLRPEEIDYAAQALEILVDSMEKAGRDPEIISYLIGKSTTAMYKVELK
B15: GBRAP_184_5125 (protein)
chain: TLVRATVEGEDAEELIAAARAVVEAAAAAGARLDLHVIARNMSTEEVIRVIKALGELQKAHPQVRIILDVEDEKSDEEIDRLVAAADEAGVRLVLAIPEE
B16: GBRAP_160_4699 (protein)
chain: SATAEKLKKYATEEFERAKELIVGESREQRAIIVEGIGGEIIMELIENEEVSDELVDEVDAIIDALVATILANPNLTDEELKKLIDDALAKIKAAIDKHL
B17: GBRAP_14_3832 (protein)
chain: MEEVEKVIKETLEEIREELIDMFPEKAEEIKARIEEILKKALKLLKETKDVEKTLKYIKEELLAAVDEILADESPEARAAARALVINEVAEAELEIEELK
B18: GBRAP_184_5244 (protein)
chain: MVLERELVAKTPEEAKEKLAALREEARASGAKVELTLTLEDADEELVKAAMEGIKELREEGLLERAEVVIESYKSEEVLDLAMELAHEVGVDALWYNDNP
B19: GBRAP_78_6735 (protein)
chain: DLEKELKEVLEETIKLMDEIIKNSEKFSEETLGEAVEALNYALLADLSGGDLELLEETAKALKELIKLLEKEKTPLAKELAKKAKELLKKLEEIIKKKKE
B20: GBRAP_122_2956 (protein)
chain: SEEERIEELVEETLRRAEEGDPAEALFEALKRAAEEFDAESLIELADRLKEAFLERGWEAEALRAYARAAQWLAENKPELAEAADHLADLALELLDRLEE
B21: GBRAP_160_4541 (protein)
chain: SEKVEKLIKDIEEEEEEIKELVGEISNEELINFVSVEIGSIILEGIELGIFSDELEEEIDEIEEELIEKLKENKNASPEEKKAIIEEAAKKIKEAIKKSS
B22: GBRAP_137_3665 (protein)
chain: MKVKVEVKLEGNFAEITIKADTKELMEKAEDIIDEAAKETGVAYAIHIDEENKEVTVDLYGEREKLKKFIERVVKKLSEIADVEYTLEEDGKVTKEFLKK
B23: GBRAP_11_2894 (protein)
chain: KLEKLEEAAELAKEVIELLEKLKEEGVDDEELREKLREKAEKLLELAKESLDESDVELVKEIIELVEKAEEDPENAEQYIDEALALARTLLGQILLEIEE
B24: GBRAP_160_4788 (protein)
chain: SERVERASKLLREELEEAIELSKGETTEERVNIFDVEIGSAIMELIEEGLLNDEEEEVLARVRDELVATIRANPDLTEEELRALAEEAVERFRRELEKLE
B25: GBRAP_95_7014 (protein)
chain: EDDQLAADSAAEVLETAVDLGDEEAARRAARRLVAILVENPAVKFPADISPAAARVILEEARRELDPATALAIARRLEADAADPAVKALAAAAAAEIEAA
B26: GBRAP_137_3652 (protein)
chain: MTVNIDVEIDGDFASITIKADTKELAELSADILYETAKKHGVAIAISLDLENKTVNADLLGEKEKIRAAIKDFVAELSKKADVNLTLTEDGKTTKTTIKK
B27: GBRAP_117_2576 (protein)
chain: MMSKEEMKKKVYETVKKVIEKLKEAEKLSPEEREKVLKELKEEMKKVVREALEILSEEEVEEIVEEALLEADAKTYFEAESIFLEALEEVRREREEEERR
B28: GBRAP_160_4594 (protein)
chain: SEETEKLIKKIKEIVEEAKEMIKGESHEERLTVIRVMVGDILLELSSSSIVSDELEEKADELGRELIETVEKNKDLTEEEIIELINEMEEKIIKAIEEES
B29: GBRAP_160_4375 (protein)
chain: SEELKELIKEIEELKKEFEELAKDLSPEEVKILAKGVLSEIAALVFENEAVSEETKDKIMEIIDKALEELDKLKDASPEEIVAVTTEAVNEIIELIKKEI

Target: GABARAP, O95166
Assay: median log2 fold change of GCK-ALFA target abundance (FLAG IP / Myc IP barcode read proportion) (log2 ratio); each designed protein is fused to an ALFA-tag nanobody in HEK293 cells to bring the named protein to FLAG-tagged glucokinase (GCK); Myc marks an untargeted standard; higher = target protein stabilised (more abundant)
Settings: target protein: 3xFLAG-MCP-GCK-ALFA reporter; HEK293 landing pad (RPLP)
Description: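 LABEL-seq trans screen in HEK293 landing-pad cells. Each de novo designed 100-aa effector handle, binding the indicated effector (E3 ligase, DUB or autophagy protein), is fused to a constant NbALFA target handle and induced with 2 ug/mL doxycycline. A FLAG-MCP-GCK-ALFA target and a Myc-MCP standard reporter were transfected, and after 48 h circRNA barcodes were recovered by anti-FLAG and anti-Myc IP and sequenced. The value is the median across barcodes (at least 3 per design) of log2(FLAG/Myc read-proportion ratio), with the two transfection replicates pooled. Negative values mean degradation and positive values mean stabilisation of the target.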

GABARAP, O95166, sequence (O95166 whole entry, the tested form may be a part): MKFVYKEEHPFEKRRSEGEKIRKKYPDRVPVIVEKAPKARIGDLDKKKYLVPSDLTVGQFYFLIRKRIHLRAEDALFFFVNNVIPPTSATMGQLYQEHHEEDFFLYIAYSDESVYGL

Question: With B1 as the binder, how does the “median log2 fold change” value read?
Answer: Its value is 0.103.

Question: B2 was tested. Which “median log2 fold change” value did it give?
Answer: Its value is 0.0319.

Question: With B3 as the binder, how does the “median log2 fold change” value read?
Answer: Its value is 0.132.

Question: With B4 as the binder, how does the “median log2 fold change” value read?
Answer: Its value is 0.0143.

Question: Which “median log2 fold change” value does the source give for B5 here?
Answer: Its value is 0.156.

Question: How did the “median log2 fold change” value turn out when B6 was run?
Answer: Its value is 0.116.

Question: With B7 as the binder, how does the “median log2 fold change” value read?
Answer: The value was -0.459.

Question: B8 was tested. Which “median log2 fold change” value did it give?
Answer: The value was 0.309.

Question: How did the “median log2 fold change” value turn out when B9 was run?
Answer: The value was 0.117.

Question: With B10 as the binder, how does the “median log2 fold change” value read?
Answer: The value was 0.126.

Question: Which “median log2 fold change” value does the source give for B11 here?
Answer: Its value is 0.175.

Question: Which “median log2 fold change” value does the source give for B12 here?
Answer: Its value is -0.617.

Question: Which “median log2 fold change” value does the source give for B13 here?
Answer: Its value is 0.0935.

Question: With B14 as the binder, how does the “median log2 fold change” value read?
Answer: Its value is 0.234.

Question: Which “median log2 fold change” value does the source give for B15 here?
Answer: Its value is 0.0858.

Question: B16 was tested. Which “median log2 fold change” value did it give?
Answer: The value was -0.0172.

Question: Which “median log2 fold change” value does the source give for B17 here?
Answer: The value was 0.204.

Question: B18 was tested. Which “median log2 fold change” value did it give?
Answer: The value was 0.0102.

Question: Which “median log2 fold change” value does the source give for B19 here?
Answer: The value was -0.101.

Question: How did the “median log2 fold change” value turn out when B20 was run?
Answer: Its value is -0.0195.

Question: How did the “median log2 fold change” value turn out when B21 was run?
Answer: Its value is -0.191.

Question: With B22 as the binder, how does the “median log2 fold change” value read?
Answer: Its value is 0.368.

Question: Which “median log2 fold change” value does the source give for B23 here?
Answer: Its value is 0.331.

Question: For B24, which “median log2 fold change” value is on record?
Answer: The value was 0.267.

Question: Which “median log2 fold change” value does the source give for B25 here?
Answer: Its value is 0.296.

Question: How did the “median log2 fold change” value turn out when B26 was run?
Answer: Its value is 0.0956.

Question: With B27 as the binder, how does the “median log2 fold change” value read?
Answer: The value was 0.21.

Question: For B28, which “median log2 fold change” value is on record?
Answer: Its value is -0.49.

Question: With B29 as the binder, how does the “median log2 fold change” value read?
Answer: The value was 0.194.
